In the supplement of paper PMC8285479:
Where a name gives a salt, the structure may show the parent alone. ± gives the standard deviation of the averaged measurements. The full ranking holds about 1,900 compounds; the median of “normalised cell viability (NPI; 0 = phenylarsine oxide control, 1 = DMSO control)” is about 1, and the lowest 2% start at about 0.039. The list shows a part of the results.

Tested on: NCI-H1944
Test: normalised cell viability (NPI; 0 = phenylarsine oxide control, 1 = DMSO control) (fraction of DMSO control); NCI-H1944 is a non-small cell lung cancer line; higher = more viable cells (less compound toxicity)
Settings: 6 days
[1] = glucocorticoid arm: hydrocortisone 2.75 uM co-treatment, compound 1 µM
[2] = glucocorticoid arm: hydrocortisone 2.75 uM co-treatment, compound 5 µM
[3] = glucocorticoid arm: hydrocortisone 2.75 uM pre-treated 2 days and continued, compound 1 µM
[4] = glucocorticoid arm: hydrocortisone 2.75 uM pre-treated 2 days and continued, compound 5 µM
[5] = glucocorticoid arm: vehicle, compound 1 µM
[6] = glucocorticoid arm: vehicle, compound 5 µM
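Also: CTB read-out in 384-well plates, mean of triplicate wells, normalised per plate against 1 µM phenylarsine oxide and 0.1% DMSO, compounds added 24 h after seeding.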

SMILES	normalised cell viability [1]	normalised cell viability [2]	normalised cell viability [3]	normalised cell viability [4]	normalised cell viability [5]	normalised cell viability [6]
O=C(CCCCCCC(=O)Nc1ccccc1)NO [Vorinostat (SAHA, MK0683)]	0.94 ± 0.017	0.585 ± 0.025	0.959 ± 0.0017	0.955 ± 0.048	1.003 ± 0.0058	0.0617 ± 0.0036
O=C(CCCCCCC(=O)Nc1ccccc1)NO	0.959 ± 0.016	0.569 ± 0.04	0.978 ± 0.013	0.912 ± 0.015	0.969 ± 0.011	0.075 ± 0.0018
O=C(CCCCCCC(=O)Nc1ccccc1)NO [Vorinostat; SAHA]	0.928 ± 0.018	1.04 ± 0.04	0.95 ± 0.0036	1.02	0.995 ± 0.015	0.9983 ± 0.0029
COc1ccc2c(c1)c(C1=C(c3c[nH]c4ccccc34)C(=O)NC1=O)cn2CCCN(C)C	0.912 ± 0.028	1.02 ± 0.01	0.928 ± 0.012	0.977 ± 0.0092	1.006 ± 0.0063	1.03
Nc1c2c(nc3ccccc13)CCCC2 [9-Amino-1,2,3,4-tetrahydroacridine hydrochloride]	0.9893 ± 0.0023	0.991 ± 0.004	0.794 ± 0.33	0.992 ± 0.012	0.986 ± 0.013	0.9903 ± 0.0035
O=c1sn(-c2cccc3ccccc23)c(=O)n1Cc1ccccc1 [Tideglusib]	1.01 ± 0.016	1.02 ± 0.029	1.02 ± 0.01	1.03	0.99933 ± 0.00058	1.007 ± 0.0058
COc1cc2/c(=N/c3ccc(Br)cc3F)nc[nH]c2cc1OCC1CCN(C)CC1 [Vandetanib (Zactima)]	0.84 ± 0.022	0.653 ± 0.023	0.8763 ± 0.0087	0.722 ± 0.022	0.901 ± 0.0096	0.726 ± 0.029
COc1cc2/c(=N/c3ccc(Br)cc3F)nc[nH]c2cc1OCC1CCN(C)CC1 [Vandetanib]	0.894 ± 0.018	0.721 ± 0.021	0.902 ± 0.031	0.825 ± 0.015	0.915 ± 0.016	0.752 ± 0.014
CCN(CC)C(=S)SSC(=S)N(CC)CC [Tetraethylthiuram disulfide]	1.017 ± 0.0058	1.027 ± 0.0058	1.05 ± 0.038	1.02 ± 0.017	0.708 ± 0.07	0.943 ± 0.13
C=C[C@@]1(C)CC(=O)[C@]2(O)[C@@]3(C)[C@@H](O)CCC(C)(C)[C@@H]3[C@H](O)[C@H](OC(C)=O)[C@@]2(C)O1 [Forskolin]	1.01	–	1.01	1.04	–	–
O=C(O)C(Cc1c[nH]c2ccccc12)N1C(=O)c2ccccc2C1=O (stereo not drawn)	0.9963 ± 0.0032	1.01 ± 0.022	0.986 ± 0.019	0.973 ± 0.058	1.006 ± 0.0063	1.013 ± 0.0058
Cc1nc(N=Nc2cc([N+](=O)[O-])ccc2Cl)c(COP(=O)(O)O)c(C=O)c1O [MRS 2211 sodium salt hydrate]	1.003 ± 0.0061	1.023 ± 0.0058	0.9933 ± 0.0099	0.995 ± 0.036	1.01 ± 0.013	1.006 ± 0.0075
Cn1c(=O)n(-c2ccc(C(C)(C)C#N)cc2)c2c3cc(-c4cnc5ccccc5c4)ccc3ncc21	0.421 ± 0.017	0.496 ± 0.04	0.629 ± 0.0076	0.633 ± 0.071	0.255 ± 0.013	0.408 ± 0.047
Cc1c(F)ccc(C(=O)Nc2cc([N+](=O)[O-])ccc2N2CCN(C)CC2)c1Cl	1.03 ± 0.011	0.987 ± 0.02	1.027 ± 0.0058	1 ± 0.013	0.9957 ± 0.0075	0.9963 ± 0.0047
COc1cc(F)c(F)c(Nc2ccc(I)cc2F)c1NS(=O)(=O)C1(C[C@H](O)CO)CC1 [Refametinib (RDEA119, Bay 86-9766)]	0.602 ± 0.015	0.551 ± 0.016	0.665 ± 0.015	0.717 ± 0.043	0.374 ± 0.0085	0.213 ± 0.029
CCCCCN(CCCCC)C(=O)C(CCC(=O)O)NC(=O)c1ccc(Cl)c(Cl)c1 (stereo not drawn) [Lorglumide sodium]	1.007 ± 0.0058	1.03 ± 0.011	1 ± 0.015	1.06 ± 0.1	0.991 ± 0.0036	0.993 ± 0.0076
NC1CC1c1ccc(-c2cccc(O)c2)cc1 (stereo not drawn)	0.973 ± 0.014	0.938 ± 0.02	0.962 ± 0.021	0.941 ± 0.03	1.01 ± 0.015	0.998 ± 0.013
CS(=O)(=O)N1CCN(Cc2cc3nc(-c4cccc5[nH]ncc45)nc(N4CCOCC4)c3s2)CC1	1.02 ± 0.022	1.05 ± 0.015	1.02 ± 0.011	1.05 ± 0.015	0.998 ± 0.012	1.005 ± 0.0087
NCCSSCCN [Cystamine dihydrochloride]	0.993 ± 0.02	1.01 ± 0.013	0.9983 ± 0.0021	0.9965 ± 0.005	0.985 ± 0.0062	1.001 ± 0.0078
Nc1nc2c(ncn2COCCO)c(=O)[nH]1 [Acyclovir]	0.9907 ± 0.0085	0.996 ± 0.014	0.814 ± 0.3	0.9845 ± 0.005	0.98 ± 0.01	0.996 ± 0.001
CCCCCCCCCCCCCCCCCCOCC(COP(=O)([O-])OCC[N+](C)(C)C)OC (stereo not drawn)	1.006 ± 0.0063	0.993 ± 0.015	0.9897 ± 0.0011	0.989 ± 0.028	0.9853 ± 0.0049	0.9957 ± 0.0059
CN1[C@@H]2CC[C@H]1CC(OC(=O)c1c[nH]c3ccccc13)C2 (stereo partly drawn) [3-Tropanyl-indole-3-carboxylate hydrochloride]	1.01 ± 0.011	0.999 ± 0.011	1.02 ± 0.017	1.02 ± 0.015	0.9923 ± 0.0021	0.9917 ± 0.004
CCCC1O[C@@H]2C[C@H]3[C@@H]4CCC5=CC(=O)C=C[C@]5(C)[C@H]4[C@@H](O)C[C@]3(C)[C@]2(C(=O)CO)O1 (stereo partly drawn) [Budesonide]	1.003 ± 0.0061	0.9 ± 0.013	1.006 ± 0.0063	0.978 ± 0.023	0.785 ± 0.039	0.649 ± 0.045
NCCC1CCCC(CCN)N1 (stereo not drawn) [MDL 26,630 trihydrochloride]	0.9937 ± 0.0075	0.981 ± 0.021	0.9927 ± 0.0075	1.04 ± 0.11	0.9923 ± 0.0042	1 ± 0.011
COC(=O)c1c(C)[nH]c(C)c1C(=O)c1ccccc1Cc1ccccc1	1.01 ± 0.016	1.027 ± 0.0058	1.01 ± 0.011	1.01 ± 0.011	1.01	1.01 ± 0.014
COc1cc(C(O)CO)ccc1OS(=O)(=O)O (stereo not drawn) [MHPG sulfate potassium]	1.006 ± 0.0063	1.01 ± 0.014	1.01	1.01 ± 0.011	1.007 ± 0.0058	1.01
